According to PubChem BioAssay AID588855 (National Center for Advancing Translational Sciences (NCATS), 2011):
In all, about 410,000 compounds went through this assay and about 5,000 (1.2%) were called active. Inconclusive results, whose numbers are uncertain, are shown with a selection of clear calls. Calls follow the shape of the dose curve; as a rule, active = well fitted inhibition curve with a large enough effect; inconclusive = small, poorly fitted or top-dose-only effect; inactive = no such curve, though single readings can be large or run the other way. Where the call is inconclusive, the potency comes from a doubtful curve fit.

assay: qHTS for Inhibitors of TGF-b; details: HepG2 CAGA-GFP TGF-b/SMAD3 reporter, GFP fluorescence, 18 h, TGF-beta stimulated, 500 pg/mL final; series mostly up to 46.1 µM; also: nearly all actives have a fitted effect of over 65% in size
Outline: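 Per well, imaged GFP fluorescence of HEPG2 CAGA-GFP cells gives the signal; cells get compound, then TGF-beta (500 pg/mL final), 18 h at 37 degrees C; %Activity versus -TGF-beta and +DMSO controls.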
Potency is read from the fitted curve at half-maximal effect; tags tell the direction and shape of the fitted curve.

Row | Compound | Potency
1 | COc1ccc(OC)c(C2C(C(=O)Nc3ccccc3OC)=C(C)Nc3c(C(=O)Nc4ccc(F)cc4)cnn32)c1 (stereo not drawn) | inconclusive: 15.8 µM [inhibitor, partial curve]
2 | CCOC(=O)c1cc(OCC)c2c(ccc3ccccc32)n1 | inactive
3 | CCOC(=O)c1c(Nc2ccc(Cl)cc2)sc(/C=C2\C=Nc3ccccc32)c1O | inactive
4 | O=C(Nc1ccc(CN2CCCCC2)cc1)c1ccc2c(c1)OCO2 | inconclusive: 0.708 µM [inhibitor, full curve, poor fit]
5 | Cn1c(=O)c2c(nc(CN3CCc4ccccc4C3)n2Cc2ccccc2F)n(C)c1=O | inactive
6 | O=C(c1cccc(F)c1)N1CCC(c2nc3ccccc3s2)CC1 | inconclusive: 35.5 µM [inhibitor, single point]
7 | O=C(Nc1cc(Cl)cc(Cl)c1)c1cc(S(=O)(=O)N2CCc3ccccc3C2)ccc1F | inactive
8 | Cn1c(=O)c2cc(S(=O)(=O)NCCC(=O)NC3CCCCCCC3)ccc2n(C)c1=O | inconclusive: 17.8 µM [inhibitor, single point]
9 | COc1ccc(-c2[nH]ncc2CN(C)C(C)c2ccon2)cc1F (stereo not drawn) | inconclusive: 6.31 µM [inhibitor, single point]
10 | Cc1ccc(CN2C(=O)C(Cc3ccccc3)Nc3ncnc(N4CCCCC4)c32)cc1 (stereo not drawn) | inactive
11 | NC(=O)CSc1nnc(-c2cccc(S(=O)(=O)N3CCOCC3)c2)n1C1CCCCCC1 | inconclusive: 6.31 µM [inhibitor, single point]
12 | CC(Cc1cccnc1)NC(=O)c1cc(COc2ccc(F)cc2Cl)on1 (stereo not drawn) | inconclusive: 35.5 µM [inhibitor, single point]
13 | CC1=CC(C)(C)N(S(=O)(=O)c2ccc(C)cc2)c2cc(C)ccc21 | inconclusive: 1.78 µM [inhibitor, full curve, poor fit]
14 | COc1ccc(C(C)(C)C)cc1NC(=S)NCCN1CCOCC1 | inconclusive: 5.62 µM [inhibitor, single point]
15 | C=CC[C@H](CC(=O)N(CCO)Cc1ccccc1)C(=O)N[C@H](COC(=O)[C@H](CC=C)CC(=O)OC(C)(C)C)Cc1ccccc1 | inconclusive: 35.5 µM [inhibitor, single point]
16 | Cc1ccc(NC(=O)c2nnn(-c3ccc4c(c3)OCCO4)c2N)cc1 | inconclusive: 3.55 µM [inhibitor, partial curve, poor fit]
17 | CC(=O)OCC(OC(C)=O)C(OC(C)=O)C(OC(C)=O)C(=O)Nc1ccc(C)cc1C (stereo not drawn) | inconclusive: 1 µM [inhibitor, partial curve, poor fit]
18 | COc1ccc(CNC(=O)c2cc(-c3ccc(C)c(C)c3)n[nH]2)cc1 | inconclusive: 35.5 µM [inhibitor, single point]
19 | CC(c1ccccc1)n1c(SCC(=O)N2CC(=O)Nc3ccccc32)nc2ccccc2c1=O (stereo not drawn) | inconclusive: 10 µM [inhibitor, partial curve]
20 | Cc1nc(-c2c(-c3ccc(O)cc3O)noc2C(F)(F)F)cs1 | inconclusive: 35.5 µM [inhibitor, single point]
21 | CCOC(=O)c1sc(NC(=O)Cc2ccc(C)cc2)nc1C | inactive
22 | CCOc1ccc(N2CC(C(=O)NCc3ccc(F)cc3)CC2=O)cc1 (stereo not drawn) | inconclusive: 3.16 µM [inhibitor, full curve]

Row | Compound | Potency
23 | O=C(CSC1=NCCN1)NC12CC3CC(CC(C3)C1)C2 | inconclusive: 35.5 µM [inhibitor, partial curve, poor fit]
24 | CC(C)(C)N1C(=O)c2ccc(C(=O)NCc3ccco3)cc2C1=O | inactive
25 | Cc1cccc(-n2ccnc2SCC(=O)Nc2nc3ccccc3s2)c1 | inactive
26 | CCOC(=O)c1c(NC(=O)CSc2nc3ccccc3c(=O)n2-c2ccccc2)sc(C(C)=O)c1C | inactive
27 | S=c1[nH]nc(-c2ccc(Cl)cc2Cl)n1Cc1ccccc1 | inconclusive: 35.5 µM [inhibitor, single point]
28 | COc1ccc(S(=O)(=O)N2CCC3CC2c2cc(N4CCOCC4)ccc23)cc1 (stereo not drawn) | inactive
29 | COc1ccccc1Cc1c(-c2cccc(Br)c2)nc2ccc(Br)cn12 | inconclusive: 15.8 µM [inhibitor, single point]
30 | COc1ccccc1N1CCN(c2nc3c(S(=O)(=O)c4ccc(C)c(C)c4)nnn3c3ccc(Cl)cc23)CC1 | inactive
31 | CCOC(=O)c1ccc(NS(=O)(=O)c2cc(Br)cc3c2N(C(C)=O)C(C)C3)cc1 (stereo not drawn) | inconclusive: 15.8 µM [inhibitor, single point]
32 | O=C(/C=C/c1ccccc1)CC(=O)c1ccccc1O | inactive
33 | CS(=O)(=O)N(CC(=O)Nc1ccccc1C(=O)NCCc1ccccc1)c1ccc2c(c1)OCCO2 | inconclusive: 35.5 µM [inhibitor, single point]
34 | Cc1ccc(Cl)cc1N1CCN(C(=O)c2cccn2-c2nnc(N3CCCC3)s2)CC1 | inconclusive: 0.447 µM [inhibitor, full curve]
35 | O=C(/C=C/c1cc([N+](=O)[O-])ccc1OC(F)F)Nc1cccc([N+](=O)[O-])c1 | inactive
36 | CCCCn1c(N)c(N(CCC(C)C)C(=O)COC(=O)Cc2ccc(Cl)cc2)c(=O)[nH]c1=O | inconclusive: 28.2 µM [inhibitor, single point]
37 | O=C(Nc1cccc(C(F)(F)F)c1)C1Cc2c(-c3ccccc3)ccnc2O1 (stereo not drawn) | inconclusive: 35.5 µM [inhibitor, single point]
38 | COc1ccc(Cl)cc1NC(=O)Cc1c(F)cccc1Cl | inconclusive: 22.4 µM [inhibitor, single point]
39 | Cc1cccc(-n2c(-c3ccncc3)n[nH]c2=S)c1C | inconclusive: 35.5 µM [inhibitor, single point]
40 | CC(C)CC1NC(=O)c2cc3ccccc3cc2-n2c1nc1ccc(F)cc1c2=O (stereo not drawn) | inactive
41 | c1ccc(-c2csc(Nc3ccc4c(c3)OCO4)n2)cc1 | inconclusive: 14.1 µM [inhibitor, partial curve]
42 | Cc1oc(-c2cccc(F)c2)nc1CN1CCCN(C(=O)c2ccco2)CC1 | inactive
43 | CCOC(=O)c1cnc2ccc(C(=O)OC)cc2c1NCCc1ccc(OC)c(OC)c1 | inconclusive: 3.16 µM [inhibitor, single point]
